{"source": "the supplement of paper PMC3334620", "note": "Whole data set: some 33,000 sequences, median “E-score (-0.5 to 0.5)” near -0.011, cut for the highest 2% near 0.28. The list shows a part of the results."}
{"target": "T1, Gcr1 (UniProt P07261)", "T1 sequence": "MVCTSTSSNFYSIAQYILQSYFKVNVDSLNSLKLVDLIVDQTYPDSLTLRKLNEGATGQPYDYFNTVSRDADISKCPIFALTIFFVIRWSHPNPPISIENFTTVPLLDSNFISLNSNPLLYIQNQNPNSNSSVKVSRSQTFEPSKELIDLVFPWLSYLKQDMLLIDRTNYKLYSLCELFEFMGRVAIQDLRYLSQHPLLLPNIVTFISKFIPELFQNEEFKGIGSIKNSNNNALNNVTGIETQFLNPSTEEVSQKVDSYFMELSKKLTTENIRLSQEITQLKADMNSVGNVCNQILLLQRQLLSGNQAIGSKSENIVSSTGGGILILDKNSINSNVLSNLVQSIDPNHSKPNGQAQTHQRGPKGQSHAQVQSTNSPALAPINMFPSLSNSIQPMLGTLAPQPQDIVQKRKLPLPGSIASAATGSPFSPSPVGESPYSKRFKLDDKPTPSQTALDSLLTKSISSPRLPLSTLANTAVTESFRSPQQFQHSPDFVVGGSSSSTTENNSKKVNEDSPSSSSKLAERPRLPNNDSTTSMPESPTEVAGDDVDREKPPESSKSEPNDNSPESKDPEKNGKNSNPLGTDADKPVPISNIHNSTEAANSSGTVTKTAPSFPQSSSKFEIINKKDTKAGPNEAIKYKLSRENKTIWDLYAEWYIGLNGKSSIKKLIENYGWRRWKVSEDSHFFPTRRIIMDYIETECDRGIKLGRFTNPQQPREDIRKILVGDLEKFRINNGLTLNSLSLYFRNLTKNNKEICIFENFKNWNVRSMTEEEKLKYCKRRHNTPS", "assay": "PBM E-score (8-mer binding enrichment) (E-score (-0.5 to 0.5)); higher = stronger / more preferred TF binding; most listed sequences are background and not binding sites", "settings": "protein concentration: 100 nM; construct: GST-full length", "outline": "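GST-tagged yeast TFs (full-length or DNA-binding domain) were made by PURExpress in vitro transcription/translation and applied at about 100-200 nM to universal all-10-mer Agilent arrays. The arrays were made double-stranded by primer extension, on fresh or once-stripped slides. Bound protein was detected with fluorescent anti-GST, and scans were normalised with masliner. Each ungapped eight-base word, pooled with its reverse complement, received an E-score (modified Wilcoxon-Mann-Whitney statistic) from the Universal PBM Analysis Suite.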"}
{"sequence": "ATCTCGAG", "PBM E-score": 0.0916}
{"sequence": "CGGGTTTA", "PBM E-score": 0.0611}
{"sequence": "AGCGGGGA", "PBM E-score": 0.113}
{"sequence": "ACACCGCT", "PBM E-score": -0.108}
{"sequence": "CACCTACC", "PBM E-score": -0.259}
{"sequence": "CAGAAAAA", "PBM E-score": 0.124}
{"sequence": "CCAACAGA", "PBM E-score": 0.147}
{"sequence": "CCTACGCG", "PBM E-score": -0.124}
{"sequence": "AGTGCTCG", "PBM E-score": -0.14}
{"sequence": "GCTAGGAA", "PBM E-score": 0.0555}
{"sequence": "AAATTTCT", "PBM E-score": 0.0745}
{"sequence": "CCTATGCA", "PBM E-score": -0.218}
{"sequence": "ACACTTCG", "PBM E-score": 0.00571}
{"sequence": "CACAGAGG", "PBM E-score": -0.185}
{"sequence": "GGACCTAC", "PBM E-score": 0.0651}
{"sequence": "CCTGGCCG", "PBM E-score": -0.154}
{"sequence": "CTCGTGAC", "PBM E-score": -0.0369}
{"sequence": "ACGACCAA", "PBM E-score": -0.188}
{"sequence": "AATTTAAA", "PBM E-score": 0.2}
{"sequence": "AGGTAATG", "PBM E-score": -0.0574}
{"sequence": "GCTTGGAA", "PBM E-score": -0.114}
{"sequence": "CTGTTAGC", "PBM E-score": -0.0708}
{"sequence": "GCGGGAGA", "PBM E-score": -0.277}
{"sequence": "TCATCCAA", "PBM E-score": -0.114}
{"sequence": "AATGAACT", "PBM E-score": 0.148}
{"sequence": "GCAATTGA", "PBM E-score": 0.0844}
{"sequence": "GCCTGCGA", "PBM E-score": -0.209}
{"sequence": "CGCTTTAC", "PBM E-score": -0.0725}
{"sequence": "AACGGGGA", "PBM E-score": -0.00775}
{"sequence": "GCCAAGGA", "PBM E-score": -0.1}
{"sequence": "CGTGTTTA", "PBM E-score": 0.0454}
{"sequence": "CGCGGACA", "PBM E-score": -0.0906}
{"sequence": "CGCGCGCC", "PBM E-score": -0.0109}
{"sequence": "CAAAACGC", "PBM E-score": 0.025}
{"sequence": "AGATTGAG", "PBM E-score": 0.0698}
{"sequence": "GGAAGTGA", "PBM E-score": 0.173}
{"sequence": "CAATCACC", "PBM E-score": -0.275}
{"sequence": "AAGATGAC", "PBM E-score": -0.09}
{"sequence": "CACACGGC", "PBM E-score": 0.0286}
{"sequence": "AAAGATGA", "PBM E-score": 0.0521}
{"sequence": "CAGTATAG", "PBM E-score": 0.0323}
{"sequence": "ACTAAATC", "PBM E-score": 0.0396}
{"sequence": "GACACCGC", "PBM E-score": -0.228}
{"sequence": "CGTTTTTC", "PBM E-score": 0.178}
{"sequence": "CCGCAGAC", "PBM E-score": -0.0439}
{"sequence": "ATTAAGGG", "PBM E-score": 0.0551}
{"sequence": "CCAAGGCG", "PBM E-score": 0.0109}
{"sequence": "ACAGAGGC", "PBM E-score": -0.138}
{"sequence": "ATAAGTAC", "PBM E-score": 0.202}
{"sequence": "CCCGCAAG", "PBM E-score": -0.181}
{"sequence": "ACACCGCA", "PBM E-score": 0.00028}
{"sequence": "AATTTTTA", "PBM E-score": 0.00173}
{"sequence": "AACACCCG", "PBM E-score": 0.0409}
{"sequence": "AATTAGGA", "PBM E-score": 0.315}
{"sequence": "GAGTCAAC", "PBM E-score": -0.142}
{"sequence": "AAGGATAT", "PBM E-score": 0.0233}
{"sequence": "AAGAAGGA", "PBM E-score": 0.0473}
{"sequence": "TGAGTGCA", "PBM E-score": -0.161}
{"sequence": "ATGCGCAC", "PBM E-score": 0.0561}
{"sequence": "CTTCGACA", "PBM E-score": -0.00509}
{"sequence": "ACTAGTAG", "PBM E-score": 0.114}
{"sequence": "AGAACGAT", "PBM E-score": 0.0462}
{"sequence": "CTTGAAAC", "PBM E-score": 0.054}
{"sequence": "GCGTGTCA", "PBM E-score": 0.0176}
{"sequence": "GCCCGGGC", "PBM E-score": 0.21}
{"sequence": "ACTCCAGA", "PBM E-score": 0.132}
{"sequence": "CACTCTTA", "PBM E-score": 0.0417}
{"sequence": "GACACCTC", "PBM E-score": 0.0232}
{"sequence": "AAATGTCA", "PBM E-score": -0.0523}
{"sequence": "GAGAGTGA", "PBM E-score": -0.261}
{"sequence": "ACGGAGAG", "PBM E-score": -0.132}
{"sequence": "TACTAAAA", "PBM E-score": 0.103}
{"sequence": "TCCTCACA", "PBM E-score": 0.0112}
{"sequence": "ACCCGTCT", "PBM E-score": 0.00325}
{"sequence": "AGGTCTCA", "PBM E-score": -0.195}
{"sequence": "ATCGTACA", "PBM E-score": 0.0291}
{"sequence": "CATCCTAG", "PBM E-score": 0.171}
{"sequence": "AGGAAGAG", "PBM E-score": -0.0854}
{"sequence": "ACACTCTA", "PBM E-score": 0.0457}
{"sequence": "CGGAATAC", "PBM E-score": 0.0977}
{"sequence": "GACCGGAA", "PBM E-score": 0.151}
{"sequence": "CATCCATG", "PBM E-score": 0.0181}
{"sequence": "TGTCGGAA", "PBM E-score": 0.032}
{"sequence": "GATCGCCA", "PBM E-score": 0.0101}
{"sequence": "ATTTTTTA", "PBM E-score": 0.278}
{"sequence": "AATGTATG", "PBM E-score": 0.0141}
{"sequence": "AGCCCGCG", "PBM E-score": 0.00633}
{"sequence": "CCGAACGA", "PBM E-score": -0.192}
{"sequence": "GGGAAACA", "PBM E-score": 0.0935}
{"sequence": "CCTGAGGC", "PBM E-score": -0.0624}
{"sequence": "CCAGCCCA", "PBM E-score": -0.156}
{"sequence": "AGGGCGAA", "PBM E-score": -0.0562}
{"sequence": "AAAGCGTG", "PBM E-score": -0.239}
{"sequence": "CAAACGAC", "PBM E-score": -0.0182}
